± gives the standard error. The list shows a part of the results.
Biological target: terminal deoxynucleotidyl transferase (calf thymus) (UniProt P06526)
Assay: TdT poly-dT extension signal (Cy3 hybridisation fluorescence, uncapped minus capped) (fluorescence a.u.); higher = more efficient initiation of TdT extension
Conditions: initiator chemistry: 2'-O-methyl-RNA, free 3'-OH (5'-tethered via HEG linker)
Procedure, shortened: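 Mono- to pentamer initiators were made by photolithographic in situ synthesis on glass on a hexaethylene glycol linker, each as uncapped and DMTr-dT-capped replicates. Arrays were extended with 0.2 u/μL calf thymus TdT and 100 μM dTTP in TdT buffer plus 0.25 mM CoCl2 at 37 °C for 120 min, hybridized with Cy3-labelled rA18 probe at 4 °C and scanned at 532 nm. Extension signal is mean uncapped minus mean capped (background) fluorescence.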

Chain of UniProt P06526 (P06526 whole entry): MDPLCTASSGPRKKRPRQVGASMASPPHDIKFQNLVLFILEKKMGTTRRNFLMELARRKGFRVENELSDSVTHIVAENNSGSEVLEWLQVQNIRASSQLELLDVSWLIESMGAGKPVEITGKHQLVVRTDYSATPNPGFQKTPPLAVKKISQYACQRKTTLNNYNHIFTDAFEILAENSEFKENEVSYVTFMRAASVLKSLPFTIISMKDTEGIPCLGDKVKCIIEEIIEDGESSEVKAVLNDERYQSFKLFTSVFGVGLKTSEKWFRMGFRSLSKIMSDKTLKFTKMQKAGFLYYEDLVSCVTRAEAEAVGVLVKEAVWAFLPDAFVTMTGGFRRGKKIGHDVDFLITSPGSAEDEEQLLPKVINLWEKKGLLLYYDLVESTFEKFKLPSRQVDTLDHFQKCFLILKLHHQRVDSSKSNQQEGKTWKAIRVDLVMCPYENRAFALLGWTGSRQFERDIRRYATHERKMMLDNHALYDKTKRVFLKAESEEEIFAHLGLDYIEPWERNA

Sequence	TdT poly-dT extension signal
AUGGU	350 ± 22
GUAAG	384 ± 44
UAGU	371 ± 23
AUGG	234 ± 16
AGCAG	367 ± 45
ACGGA	530 ± 42
UUUUG	223 ± 23
ACGGG	293 ± 26
UUAGU	397 ± 31
GCAUA	576 ± 50
GGCA	358 ± 25
AGAAC	740 ± 50
CGUCU	274 ± 12
CAGUC	521 ± 42
UUCU	214 ± 22
AGUUU	220 ± 20
GGAA	722 ± 48
AAAU	568 ± 46
CUGUU	246 ± 15
CCAUG	257 ± 42
CCGCU	380 ± 47
AGUG	231 ± 23
UAAA	764 ± 51
CUAGA	687 ± 74
GAGUU	316 ± 36
GUUCG	182 ± 20
GGUGA	618 ± 42
AGUGU	415 ± 56
UUAAC	532 ± 28

Reference: the supplement of paper PMC8291772
